Measured values: patent publication US5880258A (dated 1999)
Part of at least one peptide drawing is inferred or uncertain, most often the ends. *1 amine or outer side, *2 acyl side, *3 side chain or, on linkers, in order; H or OH if unused. Where a SMILES comes first, the peptide text is derived from it. Where no end group is shown, it is not given here. [ ]: non-standard residue; d: D form. The star is where a group is joined. sY = N[C@@H](Cc1ccc(OS(=O)(=O)O)cc1)C(=O)O; X2 = CC(C)C[C@H](N*)C(=O)NP(=O)(O)O; Asu = N[C@@H](CCCCCC(=O)O)C(=O)O; dAsu = N[C@H](CCCCCC(=O)O)C(=O)O; NH(3-hydroxypropyl) = OCCCN*; Suc = O=C(CCC(=O)[*:2])[*:1]; Leu(ol) = CC(C)C[C@H](N)CO; X1 = NS(=O)(=O)CCN*; Ava = NCCCCC(=O)O; βAla = NCCC(=O)O

Target: thrombin (Homo sapiens, UniProt P00734)
Assay: anti-thrombin activity; clotting assay (coagulation time with fibrinogen as substrate)
Format: biochemical
Design: 100 μl of human-thrombin prepared at 10 NIH units/ml in aforesaid buffer
Conditions: calculated using the definition that HV-1 (54-65) potency is 1
Procedure: Measurement of anti-thrombin activity was done by looking at anti-coagulant activity as an index using fibrinogen as the substrate. That is, the compounds were dossolved in 200 μl of 0.1 mM Tris-HCl buffer (pH7.5) containing 0.1% polyethyleneglycol-6000, 100 μl of human-thrombin prepared at 10 NIH units/ml in aforesaid buffer, were added 200 μl of human-fibrinogen (Sigma) prepared at 6 mg/ml in aforesaid tris-hydrochloride buffer were added, and the coagulation time of the reaction mixtures were measured. For measuring of coagulation times, coagulation time analyzer (Amelung KC10A) was used. Obtained values were converted into units by using a previously prepared thrombin standard curve. Graphs were prepared by plotting the converted values on the vertical axis, and the concentrations of the compounds on the horizontal axis. In the graphs, the thrombin unit was defined as 100 at a compound concentration of 0. The concentration of compounds corresponding to 50 units were defined as 50% inhibitory concentrations of compounds.

Molecule	Potency
GDFEEIPYYYLQ [(B)]	0.48
CC[C@H](C)[C@H](NC(=O)[C@@H]1CCCN1C(=O)[C@H](CCC(=O)O)NC(=O)[C@H](Cc1ccccc1)NC(=O)CCC(=O)O)C(=O)N1CCC[C@H]1C(=O)N[C@@H](CCC(=O)O)C(=O)N[C@@H](Cc1ccc(O)cc1)C(=O)N[C@@H](Cc1ccc(O)cc1)C(=O)N[C@@H](CCCCCC(=O)OC)C(=O)OC [(O)] (Suc-FEPIPEYY[Asu](OMe)-OMe)	0.19
CC[C@H](C)[C@H](NC(=O)[C@H](CCC(=O)O)NC(=O)[C@H](CCC(=O)O)NC(=O)[C@H](Cc1ccccc1)NC(=O)[C@H](CC(=O)O)NC(=O)CN)C(=O)N1CCC[C@H]1C(=O)N[C@@H](Cc1ccc(O)cc1)C(=O)N[C@@H](Cc1ccc(OS(=O)(=O)O)cc1)C(=O)N[C@@H](Cc1ccc(OS(=O)(=O)O)cc1)C(=O)N[C@@H](CC(C)C)C(=O)N[C@@H](CCC(N)=O)C(=O)O (single isomer, unassigned) [Sulfated form of (B) peak 1, Gly--Asp--Phe--Glu--Glu--Ile--Pro--Tyr--Tyr(SO3 H)--Tyr(SO3 H)--Leu--Gln]	13.39
GDFEEIPEYYLQ [(A)]	0.45
CC[C@H](C)[C@H](NC(=O)[C@@H]1CCCN1C(=O)[C@H](CCC(=O)O)NC(=O)[C@H](Cc1ccccc1)NC(=O)CCC(=O)O)C(=O)N1CCC[C@H]1C(=O)N[C@@H](CCC(=O)O)C(=O)N[C@@H](Cc1ccc(O)cc1)C(=O)N[C@@H](Cc1ccc(O)cc1)C(=O)N[C@@H](CC(C)C)C(=O)NP(=O)(O)O [(Y)] (Suc-FEPIPEYY-X2)	0.04
CC[C@H](C)[C@H](NC(=O)[C@@H]1CCCN1C(=O)[C@H](CCC(=O)O)NC(=O)[C@H](Cc1ccccc1)NC(=O)CCC(=O)O)C(=O)N1CCC[C@H]1C(=O)N[C@@H](CCC(=O)O)C(=O)N[C@@H](Cc1ccc(O)cc1)C(=O)N[C@@H](Cc1ccc(O)cc1)C(=O)NCCC(=O)O [(K)] (Suc-FEPIPEYY[βAla]-OH)	0.21
CC[C@H](C)[C@H](NC(=O)[C@@H]1CCCN1C(=O)[C@H](CCC(=O)O)NC(=O)[C@H](Cc1ccccc1)NC(=O)CCC(=O)O)C(=O)N1CCC[C@H]1C(=O)N[C@@H](CCC(=O)O)C(=O)N[C@@H](Cc1ccc(O)cc1)C(=O)N[C@@H](Cc1ccc(O)cc1)C(=O)N[C@@H](CC(C)C)C(=O)NCCS(N)(=O)=O [(S)] (Suc-FEPIPEYYL-X1)	0.07
CC[C@H](C)[C@H](NC(=O)[C@@H]1CCCN1C(=O)[C@H](CCC(=O)O)NC(=O)[C@H](Cc1ccccc1)NC(=O)CCC(=O)O)C(=O)N1CCC[C@H]1C(=O)N[C@@H](CCC(=O)O)C(=O)N[C@@H](Cc1ccc(O)cc1)C(=O)N[C@@H](Cc1ccc(O)cc1)C(=O)N[C@H](CO)CC(C)C [(P)] (Suc-FEPIPEYY[Leu(ol)])	0.06
CC[C@H](C)[C@H](NC(=O)[C@H](CCC(=O)O)NC(=O)[C@H](CCC(=O)O)NC(=O)[C@H](Cc1ccccc1)NC(=O)[C@H](CC(=O)O)NC(=O)CN)C(=O)N1CCC[C@H]1C(=O)N[C@@H](Cc1ccc(O)cc1)C(=O)N[C@@H](Cc1ccc(O)cc1)C(=O)N[C@@H](Cc1ccc(OS(=O)(=O)O)cc1)C(=O)N[C@@H](CC(C)C)C(=O)N[C@@H](CCC(N)=O)C(=O)O (single isomer, unassigned) [Sulfated form of (B) peak 3, Gly--Asp--Phe--Glu--Glu--Ile--Pro--Tyr--Tyr--Tyr(SO3 H)--Leu--Gln]	1.64
CC[C@H](C)[C@H](NC(=O)[C@@H]1CCCN1C(=O)[C@H](CCC(=O)O)NC(=O)[C@H](Cc1ccccc1)NC(=O)CCC(=O)O)C(=O)N1CCC[C@H]1C(=O)N[C@@H](CCC(=O)O)C(=O)N[C@@H](Cc1ccc(O)cc1)C(=O)N[C@@H](Cc1ccc(O)cc1)C(=O)NCCCCC(=O)O [(L)] (Suc-FEPIPEYY[Ava]-OH)	0.42
CC[C@H](C)[C@H](NC(=O)[C@@H]1CCCN1C(=O)[C@H](CCC(=O)O)NC(=O)[C@H](Cc1ccccc1)NC(=O)CCC(=O)O)C(=O)N1CCC[C@H]1C(=O)N[C@@H](CCC(=O)O)C(=O)N[C@@H](Cc1ccc(O)cc1)C(=O)N[C@@H](Cc1ccc(O)cc1)C(=O)N[C@@H](CC(C)C)C(=O)N[C@H](CCCCCC(=O)OC)C(=O)OC [(U)] (Suc-FEPIPEYYL[dAsu](OMe)-OMe)	0.14
CC[C@H](C)[C@H](NC(=O)[C@@H]1CCCN1C(=O)[C@H](CCC(=O)O)NC(=O)[C@H](Cc1ccccc1)NC(=O)CCC(=O)O)C(=O)N1CCC[C@H]1C(=O)N[C@@H](CCC(=O)O)C(=O)N[C@@H](Cc1ccc(OS(=O)(=O)O)cc1)C(=O)N[C@@H](Cc1ccc(OS(=O)(=O)O)cc1)C(=O)NCCCCC(=O)O [Sulfated form of (L), Suc--Phe--Glu--Pro--Ile--Pro--Glu--Tyr(SO3 H)--Tyr(SO3 H)--NH(CH2)4 COOH] (Suc-FEPIPE[sY][sY][Ava]-OH)	2.11
CC[C@H](C)[C@H](NC(=O)[C@H](CCC(=O)O)NC(=O)[C@H](CCC(=O)O)NC(=O)[C@H](Cc1ccccc1)NC(=O)[C@H](CC(=O)O)NC(=O)CN)C(=O)N1CCC[C@H]1C(=O)N[C@@H](Cc1ccc(O)cc1)C(=O)N[C@@H](Cc1ccc(OS(=O)(=O)O)cc1)C(=O)N[C@@H](Cc1ccc(O)cc1)C(=O)N[C@@H](CC(C)C)C(=O)N[C@@H](CCC(N)=O)C(=O)O (single isomer, unassigned) [Sulfated form of (B) peak 2, Gly--Asp--Phe--Glu--Glu--Ile--Pro--Tyr--Tyr(SO3 H)--Tyr--Leu--Gln]	6.49
CC[C@H](C)[C@H](NC(=O)[C@@H]1CCCN1C(=O)[C@H](CCC(=O)O)NC(=O)[C@H](Cc1ccccc1)NC(=O)CCC(=O)O)C(=O)N1CCC[C@H]1C(=O)N[C@@H](CCC(=O)O)C(=O)N[C@@H](Cc1ccc(O)cc1)C(=O)N[C@@H](Cc1ccc(O)cc1)C(=O)N[C@@H](CC(C)C)C(=O)N[C@@H](CCCCCC(=O)OC)C(=O)OC [(V)] (Suc-FEPIPEYYL[Asu](OMe)-OMe)	0.22
CC[C@H](C)[C@H](NC(=O)[C@@H]1CCCN1C(=O)[C@H](CCC(=O)O)NC(=O)[C@H](Cc1ccccc1)NC(=O)CCC(=O)O)C(=O)N1CCC[C@H]1C(=O)N[C@@H](CCC(=O)O)C(=O)N[C@@H](Cc1ccc(OS(=O)(=O)O)cc1)C(=O)N[C@@H](Cc1ccc(OS(=O)(=O)O)cc1)C(=O)N[C@@H](CC(C)C)C(=O)N[C@@H](CCCCCC(N)=O)C(N)=O [Sulfated form of (X), Suc--Phe--Glu--Pro--Ile--Pro--Glu--Tyr(SO2 H)--Tyr(SO3 H)--Leu--(L)Asu(NH2)NH2] (Suc-FEPIPE[sY][sY]L[Asu](NH2)-NH2)	2.06
CC[C@H](C)[C@H](NC(=O)[C@H](CCC(=O)O)NC(=O)[C@H](CCC(=O)O)NC(=O)[C@H](Cc1ccccc1)NC(=O)[C@H](CC(=O)O)NC(=O)CN)C(=O)N1CCC[C@H]1C(=O)N[C@@H](CCC(=O)O)C(=O)N[C@@H](Cc1ccc(O)cc1)C(=O)N[C@@H](Cc1ccc(OS(=O)(=O)O)cc1)C(=O)N[C@@H](CC(C)C)C(=O)N[C@@H](CCC(N)=O)C(=O)O [Sulfated form of (A), Gly--Asp--Phe--Glu--Glu--Ile--Pro--Glu--Tyr--Tyr(SO3 H)--Leu--Gln] (H-GDFEEIPEY[sY]LQ-OH)	1.95
CC[C@H](C)[C@H](NC(=O)[C@@H]1CCCN1C(=O)[C@H](CCC(=O)O)NC(=O)[C@H](Cc1ccccc1)NC(=O)CCC(=O)O)C(=O)N1CCC[C@H]1C(=O)N[C@@H](CCC(=O)O)C(=O)N[C@@H](Cc1ccc(O)cc1)C(=O)N[C@@H](Cc1ccc(O)cc1)C(=O)N[C@@H](CC(C)C)C(=O)N[C@H](CCCCCC(N)=O)C(N)=O [(W)] (Suc-FEPIPEYYL[dAsu](NH2)-NH2)	0.19
CC[C@H](C)[C@H](NC(=O)[C@@H]1CCCN1C(=O)[C@H](CCC(=O)O)NC(=O)[C@H](Cc1ccccc1)NC(=O)CCC(=O)O)C(=O)N1CCC[C@H]1C(=O)N[C@@H](CCC(=O)O)C(=O)N[C@@H](Cc1ccc(O)cc1)C(=O)N[C@@H](Cc1ccc(O)cc1)C(=O)NCCCO [(N)] (Suc-FEPIPEYY-{NH(3-hydroxypropyl)})	0.06
